Laboratory results taken from PubChem BioAssay AID1159614 (National Center for Advancing Translational Sciences (NCATS), 2016).
Screen size: about 45,000 compounds; about 65 (0.1%) were called active. Calls follow the shape of the dose curve; as a rule, active = well fitted activation curve with a large enough effect; inconclusive = small, poorly fitted or top-dose-only effect; inactive = no such curve, though single readings can be large or run the other way. This is one part of the list.

target: Galactocerebrosidase (Homo sapiens) (UniProt P54803); experiment: A Novel Cell-Based Assay to Identify Small Molecules for B -Galactocerebrosidase; conditions: 145M-Twi-hGALC-G270D cells (Twitcher mouse brain line with human GALC G270D), HMU-beta-Gal fluorescence, 48 h; series mostly up to 57.5 µM; activation: at the top concentration; also: 0% is about no effect; nearly all actives have a fitted effect of over 65% in size
Summary of the method: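 Live 145M-Twi cells (Twitcher mouse brain-derived, GALC-null) stably expressing human GALC-G270D, with a wild-type GALC line, were compound-treated. Residual GALC activity was then read as fluorescence from 0.1 mM final HMU-β-gal at pH 5.2; higher signal means activation.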

Chain of UniProt P54803 (P54803 whole entry, looked up): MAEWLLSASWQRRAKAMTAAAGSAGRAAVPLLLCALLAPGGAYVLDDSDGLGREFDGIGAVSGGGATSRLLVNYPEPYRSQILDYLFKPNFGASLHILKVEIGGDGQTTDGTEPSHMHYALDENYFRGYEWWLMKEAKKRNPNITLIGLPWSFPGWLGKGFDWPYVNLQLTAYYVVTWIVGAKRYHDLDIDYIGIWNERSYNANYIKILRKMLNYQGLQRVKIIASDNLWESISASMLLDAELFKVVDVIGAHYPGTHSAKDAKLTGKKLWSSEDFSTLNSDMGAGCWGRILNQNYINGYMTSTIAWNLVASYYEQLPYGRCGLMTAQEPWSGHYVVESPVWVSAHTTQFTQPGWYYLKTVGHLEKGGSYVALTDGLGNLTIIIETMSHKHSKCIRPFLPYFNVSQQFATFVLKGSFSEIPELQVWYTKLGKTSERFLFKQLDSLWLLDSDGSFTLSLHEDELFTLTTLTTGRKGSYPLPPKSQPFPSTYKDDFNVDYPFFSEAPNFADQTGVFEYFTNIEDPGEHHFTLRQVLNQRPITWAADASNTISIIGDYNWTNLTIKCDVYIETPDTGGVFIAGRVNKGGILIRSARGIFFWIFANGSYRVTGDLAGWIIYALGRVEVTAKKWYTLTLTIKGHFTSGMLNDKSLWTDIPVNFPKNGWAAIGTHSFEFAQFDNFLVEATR

activation, inactive:
COc1ccc(-c2nc(CSCC(=O)NCCC(C)C)c(C)o2)cc1OC -7.05%, CCOc1ccc(NC(=O)CSc2nc3ccsc3c(=O)n2CCC(C)C)cc1 -4.12%, COc1ccc(OC)c(NC(=O)C2CCN(S(=O)(=O)c3ccc4c(c3)CC(C)N4C(C)=O)CC2)c1 (configuration not stated) -14.5%, Cc1ccc(NC(=O)C2CCN(S(=O)(=O)c3ccc4c(c3)CCCC(=O)N4)CC2)cc1N(C)C -16%, Cc1cc(Nc2cccc(Cl)c2)nc2ccc(NC(=O)COc3ccc(Cl)cc3)cc12 -12.8%, COc1ccc(OC)c(CNC(=O)NCc2noc3ccc(C)cc23)c1 -13.4%, O=C(CN1C(=O)c2cccnc2Sc2ccccc21)Nc1cc(F)ccc1F -15.9%, Cc1ccc(-n2nc(C)c3c(C(=O)NCCc4ccc(S(N)(=O)=O)cc4)cc(C)nc32)cc1 -14.2%, CCC1CN(C(=O)N2CCC(C(=O)NCc3cccc(F)c3)CC2)c2cc(C)ccc2O1 (configuration not stated) -19%, CC(C)c1ccc(NC(=O)c2cc3c(=O)[nH]c4ccccc4c3n2C)cc1 -27.5%, O=C(CSc1cn(CC(=O)N2CCCCC2)c2ccccc12)NCc1ccccc1Cl -14.9%, CCN1C(=O)c2ccccc2S(=O)(=O)c2ccc(C(=O)NCc3ccccc3OC)cc21 -11.2%, Cc1ccc(-n2nc(C)c3c(C(F)(F)F)cc(-c4cccnc4)nc32)cc1C -2.14%, Cc1ccc2oc(-c3ccc(NC(=O)c4oc5ccc(Cl)cc5c4C)cc3)nc2c1 1.18%, COc1ccc(NC(=O)Nc2cc(C(=O)NCc3ccc(C)cc3)ccc2N2CCCC2)cc1 -2.13%, CCCCN(C)CCCNC(=O)c1cn(CC)c2ccc(S(=O)(=O)N3CCc4ccccc4C3)cc2c1=O -16.4%, COc1ccccc1CNC(=O)c1cc(S(=O)(=O)N2CCCC(C)C2)cn1C (configuration not stated) 3.26%, CCOc1ccc(-c2cn3nc(CC(C)C)sc3n2)cc1 13.8%, Cc1cccc(NC(=O)Cn2c(SCC(=O)NCc3ccccc3)nc3ccccc32)c1C -5.82%, O=C(c1cnn(-c2ccc(F)cc2)c1-n1cccc1)N1CCN(c2ccccc2)CC1 -18%, COc1ccc(CNC(=O)C2(c3cccs3)CCOCC2)cc1 -12.8%, Cc1ccc(NC(=O)c2ccc(C)c(S(=O)(=O)N3CCCCCC3)c2)cc1 -40.1%, CCOC(=O)c1ccc(N=C2SC(C(=O)Nc3ccccc3)CC(=O)N2C)cc1 (configuration not stated) 4.42%, CCN(CC)c1ccc(C2C(C(N)=O)=C(C)Nc3nc(SCc4ccccc4Cl)nn32)cc1 (configuration not stated) 9.41%, CCc1ccc(CCOc2ccc(CC3SC(=O)NC3=O)cc2)nc1 (configuration not stated) -13.6%, COc1ccc(N2CCN(CC(O)COc3c(OC)cccc3OC)CC2)cc1 (configuration not stated) -38.4%, CCOc1ccc(NC(=O)c2c(NCc3cccs3)sc3c2CCC(C)C3)cc1 (configuration not stated) -9.94%, CCCCc1nn2c(=O)cc(COC(=O)CNC(=O)COc3ccc(C)cc3)nc2s1 -1.39%, Cc1ccccc1-c1nc(CN2CCC(C(=O)NC(C)C)CC2)c(C)o1 -9.47%, CCN(CC)S(=O)(=O)c1cccc(C(=O)Nc2ccccc2C(=O)Nc2ccc(OC)cc2)c1 -10.9%, CCOC(=O)C1=C(CN2CCN(c3ccc(C)cc3C)CC2)NC(=O)NC1c1ccc(OC)cc1 (configuration not stated) -16.6%, COc1ccc(-c2nc3sc(CCNC(=O)C(=O)Nc4ccccc4C#N)c(C)n3n2)cc1 -8.2%, CCOC(=O)c1ccccc1NC(=O)c1c(C)oc2ncnc(N3CCOCC3)c12 6.09%, COc1cccc(-n2c(=O)c3c(C)c(C)sc3n(Cc3ccccc3C#N)c2=O)c1 -14.2%, Cc1cccc(-n2c(SCC(=O)Nc3ccc(C)c(C)c3)nc3n[nH]c(C)c3c2=N)c1 -3.72%, CCOc1ccccc1NC(=O)C1=C(C)Nc2ncnn2C1c1ccco1 (configuration not stated) -20%, COc1cc(NC(=O)c2nn(C)c3c2COc2ccccc2-3)cc(OC)c1OC -6.95%, O=C(CCn1c(=O)c2ccccc2n(CC(=O)Nc2ccc(F)cc2)c1=O)NCCc1ccccc1 -6.05%, CC(C)c1cc(-c2nc(-c3ccc(Cl)cc3)no2)n[nH]1 -20.4%, CCc1cnc2c(c1SC(C(C)=O)C(=O)N(C)C)c(=O)n(C)c(=O)n2C (configuration not stated) -9.67%, COc1ccc(CCNC(=O)c2ccc(Cn3c(SCc4ccccc4)nc4cccnc43)cc2)cc1 -12.8%, COc1cccc(-c2nn(C)c3sc(C(=O)NCc4ccc(OC)cc4OC)cc23)c1 -11%, Cc1ccc(CNC(=O)c2c(Nc3ccccc3C)sc(C(=O)c3ccc(F)cc3)c2N)cc1 -6.59%, COc1ccc(CC(=O)NCC(c2cccs2)S(=O)(=O)c2ccc(F)cc2)cc1 (configuration not stated) -14.3%, Cc1ccc(C(=O)N(Cc2ccco2)c2ccccn2)cc1 -19.6%, O=C(CN1CCN(Cc2ccccc2F)C1=O)NCc1ccccc1 -7.97%, COc1ccccc1NC(=O)c1cnn(-c2ccccc2)c1-n1cccc1 6.08%, CC(C)c1ccc(NC(=O)c2ccc(CN3CC(=O)N4CCCCC4C3=O)cc2)cc1 (configuration not stated) -12.4%, CCc1ccc(C2CC(=O)Nc3c2c(=O)nc2c(C)cccn32)cc1 (configuration not stated) -13.9%, Cc1cccc(NC(=O)Cn2c(=O)n(Cc3ccccc3)c(=O)c3oc4ccccc4c32)c1C -4.23%, CCOc1ccc(C2C(C(N)=O)=C(C)Nc3nc(SCc4ccccc4F)nn32)cc1 (configuration not stated) -19.4%, COc1ccccc1C(=O)Nc1ccc(C(=O)OCc2cc(=O)n3c4c(sc3n2)CCCC4)cc1 -21.3%, CSc1ccc(CCNC(=O)c2csc3c2CCCCC3)cc1 -4.11%, O=C(O)CCn1ccc2cc(S(=O)(=O)N3CCCCCC3)ccc21 -10.7%, Cc1cc(C)c(NC(=O)C(=O)NCCc2csc(-c3ccc(F)cc3)n2)c(C)c1 -38.4%, CN(C)c1ccc(CNC(=O)c2ccc3nc(Cc4ccccc4)oc3c2)cc1 -39.2%, CCCCOc1ccc(C(=O)Nc2cccc(-c3nc4ccccc4o3)c2C)cc1 -14.1%, Cc1nc2nc(NCc3ccc(Br)cc3)[nH]n2c(=O)c1Cc1ccccc1 -19%, Cc1cccn2c(=O)c(C(=O)N3CCN(c4ccccc4)CC3)cnc12 -3.6%, COc1cc(Nc2nc(-c3ccc(OC)c(OC)c3)nc3ccccc23)cc(OC)c1 -11.9%, Cc1ccc(-n2c(=O)c3oc4ccccc4c3n(Cc3cccc(F)c3)c2=O)cc1C 10.1%, Cc1ccc(C(=O)c2c(N)c(C(=O)Nc3cccc(C(F)(F)F)c3)c3ccccn23)cc1 -11.3%, COc1ccccc1Nc1c2c(nc3ccc(NC(=O)c4ccc(N(C)C)cc4)cc13)CCCC2 -15.1%, COc1cccc(C2C(C(N)=O)=C(C)Nc3ncnn32)c1 (configuration not stated) -6.4%, COc1ccc(OC)c(NC(=O)C2=C(C)C(=O)OC23CCN(C(C)C)CC3)c1 -0.549%, Fc1ccc(N2CCN(c3ncnc4onc(-c5ccc(Cl)cc5)c34)CC2)cc1 -10.8%, O=C(CSc1nc2c(oc3ccccc32)c(=O)n1-c1ccccc1)Nc1ccc(F)c(Cl)c1 -11.6%, CCCCC(CC)CNC(=O)CCCCCn1c(=O)[nH]c2ccsc2c1=O (configuration not stated) -12.2%, O=C(c1ccc2c(c1)N(Cc1ccc(Cl)cc1)C(=O)c1ccccc1S2(=O)=O)N1CCOCC1 -8.7%, CC(C)c1ccc(NC(=O)c2ccc(=O)n(Cc3ccccc3)c2)cc1 -34.6%, CCc1ccc(-n2c(=O)c3ccccc3n(Cc3ccccc3C#N)c2=O)cc1 -12.7%, CCOc1ccccc1NC(=O)Cn1c(=O)n(Cc2ccco2)c(=O)c2sc3ccccc3c21 -20.3%, Cc1ccc(N(CC2=NCCN2)c2cccc(O)c2)cc1 -17.1%, CCOC(=O)c1c(NC(C)=O)c2c3c(sc2n1Cc1cc(C)ccc1C)CCCC3 0.0104%, Cc1oc2ncn(CC(C)C)c(=O)c2c1C(=O)NCCCN(C)Cc1ccccc1 -4.32%, O=C(Nc1cccc(C(F)(F)F)c1)C1CCCN(S(=O)(=O)c2cccc3nonc23)C1 (configuration not stated) -2.59%, CCn1c(C)c(C)c2cc(C(=O)NCCc3cc(OC)ccc3OC)ccc21 3.5%, CCOC(=O)Cn1c(=O)oc2cc(S(=O)(=O)Nc3ccccc3F)ccc21 -12.4%, COc1cc(-c2nnc(SCCOc3ccccc3)o2)cc(OC)c1OC -7.35%, CCOC(=O)c1c(SCC(=O)Nc2cccc(C)c2C)nc(=O)[nH]c1C -5.45%, CC(C)(C)c1ccc(C(=O)Nc2nnc3n2CCS3)cc1 -9.63%, Cc1oc2c(C)c3oc(=O)c(CCC(=O)N4CCCCC4)c(C)c3cc2c1C 6.7%, Cc1cc2oc(C(=O)Nc3ccc(S(=O)(=O)N(C)c4ccccc4)cc3)cc(=O)c2cc1C 19.7%, O=C(Cn1cc(S(=O)(=O)Cc2ccccc2Cl)c2ccccc21)Nc1ccc(F)cc1F -14%, Cc1ccc(Cn2c(CO)cnc2SCC(=O)Nc2cccc(F)c2)cc1 -5.92%, COc1ccc(-c2noc(-c3ccc(NCCc4ccccc4)c([N+](=O)[O-])c3)n2)cc1 -14.6%, CC(=O)N1CCc2c(sc(NC(=O)CSc3ccc(F)cc3)c2-c2nc3ccccc3s2)C1 -0.262%, CCOc1ccc(S(=O)(=O)N2CCC(n3c(C)nc4cccnc43)CC2)cc1 -20.8%, O=C(Cn1ncc2c(Cl)cccc21)NCc1cccc(F)c1 -10.1%, COC(=O)c1ccc2c(c1)N(Cc1cc(C)ccc1C)C(=O)c1ccccc1S2(=O)=O -9.21%, CCOc1ccc(CNC(=O)c2ccc3c(c2)N(Cc2ccccc2)CCS3)cc1 -17.1%, Cc1cc(C)c(NC(=O)C2CCCN(C(=O)c3cnn(-c4ccccc4)c3-n3cccc3)C2)c(C)c1 (configuration not stated) -9.38%, CCc1ccccc1NC(=O)c1ccc2c(c1)c(C)c(C)n2Cc1ccccc1 -5.04%, COC(=O)c1cc2sccc2n1Cc1nc(-c2ccc(C)cc2)oc1C -22.7%, CN(C(=O)CSc1nc2ccccc2n1CC(=O)N(C)C1CCCCC1)c1ccc(F)cc1 -9.16%, CCCCN(c1ccccc1)c1ncnc2c1cnn2-c1cccc(C)c1 -7.66%, CC(=O)Nc1ccc2nc(SCCOc3ccccc3Cl)sc2c1 -39.3%
